The whole screen tested about 190,000 compounds, of which about 270 (0.14%) were called active. Inconclusive results, whose numbers are uncertain, are shown with a selection of clear calls.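 The calls were made as follows: active = GTP binding activity at least 20% away from the 100% baseline, either lowered as inhibitor or raised as activator; inconclusive = flagged as likely green fluorescent, judged across all proteins in the well; inactive = the rest.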
These compounds were tested against GTPase HRas (Homo sapiens) (UniProt P01112) (assay: HRas wt fluorescent GTP binding changes, either direction – biochemical, wildtype, bead-based flow cytometry, multiplex, primary screen (AID 759;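 also: 0% = unlabeled GTP competition control and 100% = no-compound control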)). Conditions: GST-Ras wt beads, Bodipy-FL-GTP binding, at 10 µM, actives lie on both sides.
UniProt P01112, sequence (P01112 whole entry, looked up): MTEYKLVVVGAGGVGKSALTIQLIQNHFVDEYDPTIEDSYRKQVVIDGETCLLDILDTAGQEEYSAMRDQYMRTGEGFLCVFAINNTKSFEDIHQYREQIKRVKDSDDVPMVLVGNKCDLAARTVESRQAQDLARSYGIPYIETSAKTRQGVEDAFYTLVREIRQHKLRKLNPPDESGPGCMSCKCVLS

| Compound | GTP binding activity |
| --- | --- |
| CC(=O)C1C(=O)NC23CCCCC2C1c1ccccc1O3 (stereo unspecified) | inconclusive: 102% |
| CCOC(=O)c1c(NC(=O)c2c(N)n(CCCOC)c3nc4ccccc4nc23)sc2c1CCCC2 | inconclusive: 77% |
| Cc1nn(Cc2ccccc2Cl)c(Cl)c1C(=O)O | inconclusive: 96% |
| CCC(=NCCOc1ccc(Cl)cc1)c1c(O)n(C)c(=O)n(C)c1=O | inactive: 96% |
| Cc1cc(C)c(C2=NOC(O)(C(F)(F)F)C2)c(=O)[nH]1 (stereo unspecified) | inconclusive: 106% |
| Cn1cccc1CNCCc1ccccc1F | inactive: 104% |
| CCC(C)N1Cc2ccccc2C1=N (stereo unspecified) | inconclusive: 109% |
| CCCC(=O)NC(Oc1ccc(C(C)=O)cc1)C(Cl)(Cl)Cl (stereo unspecified) | inactive: 95% |
| Cc1nc2cc(C(=O)N3CCC4(CC3)OCCO4)ccc2n1-c1cccc(F)c1 | inconclusive: 93% |
| Cc1ccsc1C(=O)C1CCCN(Cc2ccc(O)cc2)C1 (stereo unspecified) | inactive: 98% |
| COc1ccccc1N1CCN(Cc2cccc(OC)c2O)CC1 | inconclusive: 104% |
| Cc1ccc(CCN2CC(C(=O)N3CCC4(CC3)OCCO4)CC2=O)cc1 (stereo unspecified) | inconclusive: 96% |
| COc1ccc(CN2C(=O)NC(=O)/C(=C\c3ccc(OC)c(OC)c3OC)C2=O)cc1 | inactive: 97% |
| Cc1sc(-n2c(C)cc(C=C3C(=O)NC(=O)NC3=O)c2C)c(C#N)c1C | inactive: 85% |
| CC(C)CN1CCN(Cc2cccc3c2OCO3)CC1CCO (stereo unspecified) | inactive: 100% |
| CCCSP1(=S)NCCCO1 (stereo unspecified) | inconclusive: 99% |
| O=c1c2ccccc2ncn1-c1ccc([N+](=O)[O-])c(C(F)(F)F)c1 | inconclusive: 103% |
| CNCCc1nc(N)n[nH]1 | inconclusive: 105% |
| OC1CCCCC1N1CCC(c2ccccc2)CC1 (stereo unspecified) | inactive: 100% |
| CSc1nnc([C@@H](N)Cc2c[nH]c3ccccc23)o1 | inconclusive: 98% |
| O=C1NC(=O)N(CCNc2ncc(C(F)(F)F)cc2Cl)C(=O)C1Cc1ccc(Cl)cc1 (stereo unspecified) | inconclusive: 95% |

| Compound | GTP binding activity |
| --- | --- |
| CCCCN1C(=O)/C(=C\c2ccco2)C(=O)N(CCc2ccccc2)C1=O | inconclusive: 82% |
| O=c1[nH]c(=S)[nH]c(O)c1N=Nc1ccc2c(c1)OCO2 | inactive: 93% |
| N=Cc1c(O)n(-c2cccc(Cl)c2)c(=O)[nH]c1=O | inconclusive: 104% |
| CCCCCCN=C(CC)c1c(O)n(CCCC)c(=O)[nH]c1=O | inconclusive: 102% |
| O=C1NC(=O)C(=Cc2cc(Cl)ccc2OCc2ccc(C(=O)O)cc2)C(=O)N1 | inconclusive: 91% |
| COc1cccc(C(=O)C2CCCN(Cc3cccc4c3OCO4)C2)c1 (stereo unspecified) | inactive: 95% |
| CC(=O)OC1N=C(c2ccccc2)c2cc(C)ccc2NC1=O (stereo unspecified) | inactive: 100% |
| CCN(CC)c1ccc(/C=N/c2sc3c(c2C#N)C2CCN3CC2)c(O)c1 | inconclusive: 117% |
| CC(C)[C@H]1C(=O)O[C@H](C(C)C)C(=O)N(C)[C@@H](C(C)C)C(=O)O[C@H](C(C)C)C(=O)N(C)[C@@H](C(C)C)C(=O)O[C@H](C(C)C)C(=O)N1C | inconclusive: 96% |
| Cc1cc(NC(=O)CCl)no1 | inconclusive: 96% |
| Cc1ccc(NC(=O)c2snnc2C)cc1Cl | inconclusive: 92% |
| OC(CCNCCc1c[nH]c2ccccc12)C(F)(F)F (stereo unspecified) | inactive: 97% |
| COc1ccc(NC(=O)c2cn(CCC#N)nc2-c2ccc([N+](=O)[O-])cc2)cc1 | inconclusive: 90% |
| Cn1c(O)c(C(c2ccccn2)c2c(O)n(C)c(=S)[nH]c2=O)c(=O)[nH]c1=S | inactive: 98% |
| Cc1cc(Br)c(NC(=O)CN2CC=C(c3ccccc3)CC2)c(Br)c1 | inconclusive: 94% |
| O=C(O)C1C2c3ccccc3C(c3ccccc32)C1C(=O)Nc1ccccc1 (stereo unspecified) | inactive: 94% |
| COc1ccc(CC(=O)N2CCN(C)CC2)cc1OC | inconclusive: 106% |
| COCCCn1c(N)c(C(=O)Nc2sc3c(c2C(=O)OC)CCCC3)c2nc3ccccc3nc21 | active: 65% |
| NS(=O)(=O)c1cccc(N2CCNCC2)c1 | inconclusive: 95% |
| CSCCC(N=Cc1c(O)n(-c2ccc(Br)cc2)c(=O)[nH]c1=O)C(=O)OC(C)(C)C (stereo unspecified) | inconclusive: 94% |
| CN1CCN(C(=O)COc2ccc(Oc3ccccc3)cc2)CC1 | inconclusive: 97% |

| Compound | GTP binding activity |
| --- | --- |
| c1ccc2c3c(ccc2c1)OCC1CONC31 (stereo unspecified) | inactive: 101% |
| COc1cc(OC)cc(C(=O)Nc2ccc(Br)cc2C(=O)c2ccccc2)c1 | inconclusive: 96% |
| CCOCCCn1c(N)c(C(=O)Nc2sc3c(c2C(=O)OC)CCCC3)c2nc3ccccc3nc21 | active: 72% |
| Cc1cc(C)c(NC2=NCCCS2)c(C)c1 | inconclusive: 101% |
| COC(=O)c1cncn1C(C)c1ccccc1 (stereo unspecified) | inconclusive: 102% |
| CN1C2CCC1CC(=NO)C2 | inactive: 94% |
| CCC(=NCc1ccc2c(c1)OCO2)c1c(O)n(C)c(=O)n(C)c1=O | inconclusive: 92% |
| CC(C)OP(=O)(OC(C)C)C(O)c1ccc(Br)cc1 (stereo unspecified) | inconclusive: 103% |
| CCOC(=O)c1c(/N=C/C2C(=O)NC(=S)NC2=O)sc2c1CCC2 | inconclusive: 94% |
| OC(C#CCN1CCOCC1)(c1ccccc1)C1CCCC1 (stereo unspecified) | inconclusive: 103% |
| CCN(CC)c1ccc(N=Cc2c(O)n(Cc3ccccc3)c(=O)[nH]c2=O)cc1 | inconclusive: 104% |
| N=C1c2ccccc2CN1NC(=O)c1ccc(F)cc1 | inconclusive: 104% |
| O=C1NC(=O)C(CCc2ccncc2)(CCc2ccncc2)C(=O)N1Cc1ccccc1 | inactive: 97% |
| Clc1ccc(OCC#CCN2CCCCCC2)cc1 | inactive: 97% |
| CCn1c(O)c(C=Nc2ccc(S(N)(=O)=O)cc2)c(=O)n(CC)c1=S | inconclusive: 106% |
| CC(C)C1(C)N=C(c2nc3ccccc3cc2C(=O)O)NC1=O (stereo unspecified) | inactive: 101% |
| O=[N+]([O-])c1ccc(C2C3C(c4ccccc4)=NC4(CCCC4)N32)cc1 (stereo unspecified) | inactive: 98% |
| N#CC1=C(N)Oc2c(c(=O)sc3ccccc23)C1c1cccnc1 (stereo unspecified) | inactive: 91% |
| c1ccc(-c2[nH]c[n+](CC3CO3)c2-c2ccccc2)cc1 (stereo unspecified) | inconclusive: 108% |
